About 14,000 (4.5%) of roughly 310,000 compounds showed an effect of 50% or more. Effects have a minus sign here. The list shows a part of the results.
target: human ether-à-go-go-related gene (hERG) potassium channel (human, UniProt Q12809); experiment: primary screen, population patch clamp on CHO cells stably expressing hERG
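Further: peak tail current of the secondary pulse compared with the same well before compound.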

Sequence of human ether-à-go-go-related gene (hERG) potassium channel (Q12809 whole entry, looked up): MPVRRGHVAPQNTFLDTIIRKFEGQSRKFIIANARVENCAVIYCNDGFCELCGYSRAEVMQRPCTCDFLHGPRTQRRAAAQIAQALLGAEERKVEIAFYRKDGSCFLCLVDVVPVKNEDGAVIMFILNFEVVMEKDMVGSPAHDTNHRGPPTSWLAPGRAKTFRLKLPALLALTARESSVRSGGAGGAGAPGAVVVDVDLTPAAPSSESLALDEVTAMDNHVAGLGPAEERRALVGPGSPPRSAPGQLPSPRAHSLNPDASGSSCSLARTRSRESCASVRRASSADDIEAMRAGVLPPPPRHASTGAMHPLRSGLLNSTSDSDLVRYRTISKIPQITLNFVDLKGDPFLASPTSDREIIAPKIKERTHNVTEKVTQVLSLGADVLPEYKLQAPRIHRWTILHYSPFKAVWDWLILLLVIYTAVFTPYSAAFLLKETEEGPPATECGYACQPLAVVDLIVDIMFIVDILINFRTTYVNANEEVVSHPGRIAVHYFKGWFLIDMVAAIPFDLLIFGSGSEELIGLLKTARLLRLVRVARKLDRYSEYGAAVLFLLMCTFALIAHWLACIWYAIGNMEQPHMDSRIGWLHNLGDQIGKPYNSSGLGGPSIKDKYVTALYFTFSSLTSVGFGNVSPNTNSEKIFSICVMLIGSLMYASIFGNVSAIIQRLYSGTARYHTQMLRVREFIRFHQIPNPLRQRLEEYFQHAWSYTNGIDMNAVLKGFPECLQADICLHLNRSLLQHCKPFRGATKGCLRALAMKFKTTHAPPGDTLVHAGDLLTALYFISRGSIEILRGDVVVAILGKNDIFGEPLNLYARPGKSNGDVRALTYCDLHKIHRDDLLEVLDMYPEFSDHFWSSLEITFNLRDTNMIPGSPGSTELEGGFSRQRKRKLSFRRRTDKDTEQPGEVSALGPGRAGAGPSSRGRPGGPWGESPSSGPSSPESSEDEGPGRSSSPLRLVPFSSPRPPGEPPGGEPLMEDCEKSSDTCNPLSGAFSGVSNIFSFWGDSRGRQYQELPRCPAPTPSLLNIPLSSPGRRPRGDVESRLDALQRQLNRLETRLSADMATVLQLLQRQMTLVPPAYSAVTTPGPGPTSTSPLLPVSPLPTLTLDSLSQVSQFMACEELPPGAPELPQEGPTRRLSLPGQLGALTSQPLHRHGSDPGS

Going from `Cc1ccc(N(CC(=O)N(C)Cc2ccccc2)S(C)(=O)=O)cc1C` to `Cc1ccc(N2C(=O)C(Cl)=C(NCc3ccccc3)C2=O)c(C)c1`, the “hERG current change (%, negative = inhibition) at 10uM” value rises from -3.3% to -1.37%.

Compared with `CC(C)(C)OC(=O)NCCCCC1=CC2=CC(=O)C(C)(OC(=O)c3cnc4ccccc4n3)C(=O)C2=CO1` (stereo not shown), `COc1ccc(Cn2c3ccc(OC)cc3c3nc4ccccc4nc32)cc1` is lower in “hERG current change (%, negative = inhibition) at 10uM” value: 17.2% for the first, 9.31% for the second.

Going from `COc1cc(NC(=O)c2cnc(N)o2)cc(C(=O)Nc2cccc(C(F)(F)F)c2)c1` to `COCCOc1ccc(C(F)(F)F)cc1NC(=O)c1ccc(C(F)(F)F)cc1`, the “hERG current change (%, negative = inhibition) at 10uM” value rises from -13.5% to 3.74%.

Going from `CC1(C(=O)OCC(=O)NC(=O)c2ccccc2)CC1(Cl)Cl` (stereo not shown) to `COc1cccc(C(=O)COC(=O)c2ccc(NC(=O)c3ccccc3)cc2)c1`, the “hERG current change (%, negative = inhibition) at 10uM” value rises from 5.88% to 13.4%.

First: Cc1[nH]c2c(C)cccc2c(=O)c1CN1CCCCCC1
Second: Cc1cccc(C)c1NC(=O)c1cc(S(=O)(=O)N2CCOCC2)ccc1F
The “hERG current change (%, negative = inhibition) at 10uM” value of the first is lower: -15.6% for the first, -8.05% for the second.

First: O=C(Cc1ccccc1Cl)Nc1ccc(S(=O)(=O)N2CCOCC2)cc1
Second: O=C(CS(=O)(=O)c1cn(CC(=O)N2CCOCC2)c2ccccc12)Nc1ccccc1
The “hERG current change (%, negative = inhibition) at 10uM” value of the first is lower: 2.29% for the first, 8.09% for the second.

Compared with `CC(C)OP(=O)(OC(C)C)C(Nc1cccc(C(=O)O)c1)c1ccccc1` (stereo not shown), `Cc1cc(C(=O)N2CCN(C(c3ccccc3)c3ccccc3)CC2)no1` is lower in “hERG current change (%, negative = inhibition) at 10uM” value: 8.37% for the first, 1.39% for the second.

Going from `O=C([O-])CC(=O)NC12CC3CC(CC(C3)C1)C2.[Na+]` to `CCOC(=O)CNC(=O)C1CCC(CNS(=O)(=O)c2cccc3nsnc23)CC1` (stereo not shown), the “hERG current change (%, negative = inhibition) at 10uM” value falls from 14.3% to -3.95%.

Going from `CCC1CCCCN1CCCNC(=O)c1cn(C)c2ccc(S(=O)(=O)N(C)C3CCCCC3)cc2c1=O` (stereo not shown) to `CN(C)S(=O)(=O)c1cccc(NC(=O)CCc2nc3sc4c(c3c(=O)[nH]2)CCCC4)c1`, the “hERG current change (%, negative = inhibition) at 10uM” value rises from -62.8% to -3.91%.

Compared with `Cc1ccc(C(=O)NS(=O)(=O)c2ccc(N=NN(C)C)cc2)cc1`, `Cc1cccc(NC(=O)c2ccc(S(=O)(=O)NCc3ccco3)cc2)n1` is lower in “hERG current change (%, negative = inhibition) at 10uM” value: 6.7% for the first, -1.41% for the second.

Going from `CCC1CN(S(=O)(=O)c2cc(-c3cc(C)no3)ccc2OC)c2cc(C)ccc2O1` (stereo not shown) to `COc1cc(S(=O)(=O)N2CC(=O)Nc3ccccc32)ccc1NC(C)=O`, the “hERG current change (%, negative = inhibition) at 10uM” value rises from -11.5% to 10.5%.

Compared with `CCOc1ccccc1CN1C(=O)C2(OCCO2)c2ccccc21`, `O=C(CSc1nnc(CNc2ccccc2)o1)N1CCc2ccccc21` is higher in “hERG current change (%, negative = inhibition) at 10uM” value: -2.35% for the first, 0.222% for the second.

Compared with `CC(=O)c1cn(CC(=O)Nc2ccccc2C)c2ccccc12`, `Cc1cccc(C)c1NC(=O)COC(=O)c1ccccc1Nc1ccccc1` is higher in “hERG current change (%, negative = inhibition) at 10uM” value: 20.3% for the first, 20.5% for the second.

Compared with `Cc1ccc(S(=O)(=O)CCC(=O)Nc2cccc(C)c2)cc1`, `COC(=O)CN(n1cnnc1)S(=O)(=O)c1ccc(C)cc1` is higher in “hERG current change (%, negative = inhibition) at 10uM” value: 3.33% for the first, 11.6% for the second.

First: Cc1ccc(NC2CCCN(C(=O)CN3C(=O)CSC3=O)C2)cc1C (stereo not shown)
Second: O=C(CN1C(=O)c2ccccc2C1=O)N1CCN(c2ccccc2)CC1
The “hERG current change (%, negative = inhibition) at 10uM” value of the first is lower: -7.29% for the first, -4.86% for the second.

First: Clc1ccccc1OCCCCN1CCNCC1.O=C(O)C(=O)O
Second: COc1ccc(NC(=O)C/C(C)=N/NC(=O)CCc2ccccc2)c(OC)c1
The “hERG current change (%, negative = inhibition) at 10uM” value of the first is higher: 12.7% for the first, 4.6% for the second.

Going from `Cc1ccn(-c2ccc(NC(=O)c3cccs3)cc2)n1` to `Cc1nc(-c2cccc(NC(=O)c3ccc(-n4cccn4)cc3)c2)cs1`, the “hERG current change (%, negative = inhibition) at 10uM” value falls from 22.9% to 7.24%.

First: NC(=O)CC(NC(=O)c1cccc(Br)c1)c1ccc(N2CCC(Br)CC2)c([N+](=O)[O-])c1 (stereo not shown)
Second: Nc1ncnc(NNC(=O)CNC(=O)c2c(F)cccc2Cl)c1[N+](=O)[O-]
The “hERG current change (%, negative = inhibition) at 10uM” value of the first is lower: -1.53% for the first, 12% for the second.

Compared with `Cc1ccc(/C=N/n2cnnc2)s1`, `CCOC(=O)Cn1cnc(-c2ccc([N+](=O)[O-])cc2)c1` is higher in “hERG current change (%, negative = inhibition) at 10uM” value: -35.8% for the first, -21.7% for the second.

Compared with `COc1ccc(CNC(=O)Nc2cc(C)cc(C)c2)cc1`, `COc1ccccc1N(C(=O)NCc1ccccc1)C1=NCC(C)S1` (stereo not shown) is lower in “hERG current change (%, negative = inhibition) at 10uM” value: 13.3% for the first, 5.85% for the second.

First: Cc1ccc(S(=O)(=O)N2CCN(S(=O)(=O)N3CCOCC3)CC2)cc1C
Second: Cc1cccc(N2N=C(C(=O)N3CC(=O)Nc4ccccc43)CCC2=O)c1
The “hERG current change (%, negative = inhibition) at 10uM” value of the first is lower: 1.37% for the first, 16.4% for the second.

First: CCSC1=NC2(CCCCC2)[NH2+]c2sc3c(c21)CCCC3.[I-]
Second: CC1=NN(C(=O)CCc2ccc3c(c2)OCO3)C(O)(C(F)(F)F)C1 (stereo not shown)
The “hERG current change (%, negative = inhibition) at 10uM” value of the first is lower: 10.6% for the first, 20.3% for the second.

Going from `CC(C)c1nn2c(=O)cc(CSc3ccccc3NC(=O)c3ccccc3F)nc2s1` to `Cc1ccccc1CN(C)C(C)C(=O)Nc1ccccc1F` (stereo not shown), the “hERG current change (%, negative = inhibition) at 10uM” value rises from -12% to 19.4%.

Going from `Cc1cc(O)cc2c1C(c1ccc(F)cc1)CC1(CC(C)(C)NC(=S)N1)O2` (stereo not shown) to `COc1ccc(N(C(=O)c2ccc3c(c2)OCO3)C2C=CS(=O)(=O)C2)c(OC)c1` (stereo not shown), the “hERG current change (%, negative = inhibition) at 10uM” value falls from 14.2% to -22.3%.

Compared with `COC(=O)[C@H]1[C@@H](C)N(Cc2ccccc2)C(=O)N[C@H]1c1ccccc1`, `Cc1ccc(O)c(CP(=O)(c2ccccc2)c2ccccc2)c1` is lower in “hERG current change (%, negative = inhibition) at 10uM” value: -2.47% for the first, -9.34% for the second.

Compared with `COc1ccc(-c2c(C#N)c(C)nc3c2C(=O)c2ccccc2-3)cc1`, `Cn1c(=O)n(Cc2ccc(Br)cc2)c2ccccc21` is higher in “hERG current change (%, negative = inhibition) at 10uM” value: -3.8% for the first, -3.58% for the second.

Compared with `CC(Nc1ccccc1CO)C(=O)Nc1cccc(Cl)c1Cl` (stereo not shown), `c1ccc2oc(-c3nn4c(Cn5cnc6ccccc65)nnc4s3)cc2c1` is higher in “hERG current change (%, negative = inhibition) at 10uM” value: 5.35% for the first, 14.3% for the second.

With `NCCCCCC(=O)O` the “hERG current change (%, negative = inhibition) at 10uM” value was 8.44%.
